The whole screen tested about 50,000 compounds, of which about 800 (1.6%) showed an effect of 50% or more. The list shows a part of the results.
The compounds below were run against Bcl-2-like protein 10 (Homo sapiens) (UniProt Q9HD36) (assay: TR3 peptide-Bcl-B binding displacers, biochemical primary FP assay, phenotype converters (AID 1240;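 also: 0% = Bcl-B with tracer peptide and DMSO and 100% = tracer peptide lacking Bcl-B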)). Conditions: GST-Bcl-B / FITC-TR3 peptide fluorescence polarization; stronger effect = higher value; compound at 3.75 mg/L.
UniProt Q9HD36, sequence (Q9HD36 whole entry, looked up): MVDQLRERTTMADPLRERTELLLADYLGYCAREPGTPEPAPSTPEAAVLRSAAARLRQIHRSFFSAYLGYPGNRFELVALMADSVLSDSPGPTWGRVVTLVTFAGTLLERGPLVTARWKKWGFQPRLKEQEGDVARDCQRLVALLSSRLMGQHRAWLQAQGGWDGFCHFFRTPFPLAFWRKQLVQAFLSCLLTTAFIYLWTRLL

| SMILES | displacement [%] |
| --- | --- |
| COc1ccc(/C=C2\C(=O)NC(=O)N(c3ccc(C)cc3)C2=O)c(C)c1 | 8.4 |
| COc1cc(OC)c(C=C2C(=O)N(C)C(=O)N(C)C2=O)cc1Br | 1.1 |
| O=C1C(Cl)=C(N2CCN(c3ccccc3)CC2)C(=O)N1c1ccc(Br)cc1 | -7 |
| Cc1ccccc1NC1SC(=O)N(c2ccccc2)C1=O (centres undefined) | 1.8 |
| COC(=O)CCN1C(=O)/C(=C/c2cccc(OCc3ccccc3)c2)SC1=S | -1.3 |
| O=Cc1cc(Br)ccc1OCc1ccccc1F | -13.8 |
| CCOc1ccccc1NC(=O)c1cc(C(=O)O)ccc1C(=O)O | 15.9 |
| O=C(CN(c1ccc(Br)cc1)S(=O)(=O)c1ccccc1)N1CCc2ccccc2C1 | 1.2 |
| Cc1ccc(/C=C2\SC(=S)N(c3ccc(F)cc3)C2=O)o1 | 101 |
| COc1ccc(N(C(C)C(=O)N/N=C/c2cccs2)S(C)(=O)=O)cc1 (centres undefined) | 3.9 |
| Cc1ccc(N2CCN(/N=C\c3ccncc3)CC2)cc1 | -7.4 |
| O=C(Oc1ccc2c(C(F)(F)F)cc(=O)oc2c1)c1ccccc1 | 3.2 |
| Cc1csc(Nc2ccccc2)[n+]1CCO | 4.4 |
| COc1ccccc1-c1cc(-c2ccccc2)nc(SC)c1C#N | 5.1 |
| COc1cc(NC(=O)COc2ccc([N+](=O)[O-])cc2)ccc1NC(=O)c1ccco1 | 3.7 |
| CCOC(=O)c1cnc2cc(-c3cccc(F)c3)[nH]n2c1=O | 11.6 |
| COCCNC(=O)Cc1ccc(Br)cc1 | 13.1 |
| Clc1cccc(Cl)c1OCCN1CCCC1 | 3.9 |
| CC(C)OC(=O)c1c(NC(=O)C2CC=CCC2C(=O)O)sc2c1CCCC2 (centres undefined) | -2.8 |
| COc1ccc(S(=O)(=O)/N=C2C=C/C(=N\S(=O)(=O)c3ccc(OC)cc3)C=C/2Cl)cc1 | 16.5 |
| CC(C)(C)C(=O)Nc1ccc(S(=O)(=O)Nc2nccs2)cc1 | -4.8 |
| CCOc1cc([N+](=O)[O-])cc(/C=C2/SC(=S)NC2=O)c1O | 14 |

| SMILES | displacement [%] |
| --- | --- |
| O=C(CSc1nc2ccccc2o1)N=Nc1c(O)n(CN2CCCC2)c2ccccc12 | -16.2 |
| CCOC(=O)C1=NN(C(=O)c2ccc(Cl)cc2)C(O)(C(C)(C)C)C1 (centres undefined) | 0.6 |
| Cc1cc(C)c(-c2nn(-c3ccccc3)cc2C=O)c(C)c1 | 10.9 |
| COc1cccc(/C=C2/C(=O)NC(=O)N(C)C2=O)c1O | -5.3 |
| O=C(CCNc1cccc(Br)c1)c1cccs1 | 0.1 |
| CCOc1ccccc1NC(=O)C1(c2ccccc2)CC1(Cl)Cl (centres undefined) | -4.5 |
| CCc1c(C)nc2cc(-c3cccc(C)c3)[nH]n2c1=O | 8.8 |
| CN1CCC(=NNC(=O)c2cccc([N+](=O)[O-])c2)CC1 | 10.6 |
| Cc1ccccc1C(=O)Nc1c(C(=O)N2CCN(C)CC2)cnn1-c1ccccc1 | 4.7 |
| O=C(/C=C/c1ccccc1)NC(=S)Nc1ccc(O)c(-c2nc3ccccc3o2)c1 | 14.2 |
| COCCCNC(=O)CC(=O)N/N=C/c1cc(OC)c(OC)c(OC)c1 | -9.1 |
| Cc1ccc(S(=O)(=O)CCc2nc3ccccc3s2)cc1C | 2.5 |
| CCc1ccc(NC(=O)CCCOc2ccccc2)cc1 | -1.9 |
| O=C(Nc1ccccc1)c1cccc(Br)c1 | 12.3 |
| CCN(CC)CCCNS(=O)(=O)c1ccc(Cl)cc1 | -5.5 |
| COc1cc(NC(=O)c2ccc(-c3cccc([N+](=O)[O-])c3)o2)ccc1NC(=O)c1ccco1 | 11.4 |
| COCCNC(=O)c1cc2n(n1)C(C(F)(F)F)CC(c1ccc(Cl)c(Cl)c1)N2 (centres undefined) | 6.2 |
| Cc1oc(C(C)(C)C)cc1C(=O)Nc1ccc(O)c(C(=O)O)c1 | -7.9 |
| Cc1cc(C)c(C(=O)/C(=C/c2ccc(I)cc2)c2ccccc2)c(=O)[nH]1 | -1.1 |
| CCn1cc(C(=O)O)c(=O)c2cc([N+](=O)[O-])ccc21 | 18.3 |
| O=C(Nc1ccc(N2CCCCC2)cc1)c1ccc(-c2ccccc2[N+](=O)[O-])o1 | -2.4 |
| Cc1cccc(NC(=O)Cc2ccccc2)c1 | 4.7 |

| SMILES | displacement [%] |
| --- | --- |
| COC(=O)c1sccc1NC(=O)c1cc(-c2ccccc2Cl)nc2ccccc12 | 22.7 |
| CC(C)(C)c1cc(C(=O)N/N=C/c2ccc(Cl)cc2Cl)n[nH]1 | -8 |
| Cc1nnc(C)n1/N=C/c1ccc(Cl)cc1 | 11.4 |
| COc1cc(CN2CCN(S(=O)(=O)c3ccc(Cl)cc3)CC2)cc(OC)c1OC | -6 |
| Cc1ccc(NCC(=O)N/N=C\c2cc(Br)cc(Br)c2OC(=O)c2cccc(F)c2)cc1 | -1.2 |
| CCc1ccc(NC(=O)C(=O)NCCc2ccc(F)cc2)cc1 | 12.1 |
| CCn1c(O)c(N=Nc2nc3ccccc3s2)c2ccccc21 | -0.9 |
| COc1ccc(/C=N/N=c2\sc3ccccc3n2C)c(OC)c1 | -8.1 |
| Cc1cc(C)nc(NS(=O)(=O)c2ccc(NC(=O)CSc3ncn[nH]3)cc2)n1 | 5.3 |
| COc1ccccc1Nc1nc(Nc2ccccc2OC)nc(N2CCOCC2)n1 | 9.3 |
| COc1ccc(C2CC(=O)Nc3c2cc(Br)c2ccccc32)cc1OC (centres undefined) | -7.4 |
| CCOC(=O)c1c(NC(=O)C2CCCO2)sc(C(=O)N(CC)CC)c1C (centres undefined) | -4 |
| O=S(=O)(Nc1ccc(Cl)cc1)c1ccc2c(c1)OCCO2 | 3.3 |
| CC1=NN(C(=O)Cc2ccc([N+](=O)[O-])cc2)C(O)(c2ccc(Cl)cc2)C1 (centres undefined) | 20.3 |
| COc1ccc(C(C2=C(O)CC(C)(C)CC2=O)C2C(=O)CC(C)(C)CC2=O)c2ccccc12 (centres undefined) | -6.1 |
| CCOC(=O)c1c(NC(=O)c2cccc(F)c2)sc2c1CCC2 | -0.5 |
| COC(=O)C1=C(C)NC(=O)NC1c1ccc(OCCO)c(OC)c1 (centres undefined) | -12.3 |
| CC(=O)/C=C(\C)Nc1ncn(-c2ccc(C)cc2)c1C(=O)c1ccccc1 | 6 |
| C/C(=N/Nc1ccccc1[N+](=O)[O-])C1CC1 | -6.7 |
| COc1ccc(CC(=O)Nc2ccc(Br)c(C)c2)cc1 | 7.5 |
| CCCCOC(=O)C1=C(C)NC2=C(C(=O)CC(C)(C)C2)C1c1cccc(Cl)c1 (centres undefined) | 8.4 |
| Oc1ccc2ccccc2c1/C=N/Nc1ncc(Br)cn1 | -7.4 |

| SMILES | displacement [%] |
| --- | --- |
| COc1ccc(C(=O)Nc2ccccc2C(=O)NC(C(=O)N2CCOCC2)C(C)C)cc1 (centres undefined) | -9.5 |
| Cc1ccccc1C(=O)Nc1cccc(NC(=O)/C=C/c2ccc(-c3ccccc3[N+](=O)[O-])o2)c1 | 0.6 |
| CCCCOc1ccc(C(=O)OCCN2CCCCC2)c(O)c1 | -2.7 |
| CC1(C)CC(Cc2ccccc2)(C(CO)CNCc2ccc(O)cc2)CCO1 (centres undefined) | 1.5 |
| C/C(=C\C(=O)c1ccccc1)Nc1cccc(Cl)c1Cl | 0 |
| O=C1NN(c2ccccc2)C(=O)/C1=C\c1ccc(Cl)cc1Cl | 10.6 |
| C=CCN1C(=O)/C(=C/c2cc(Cl)ccc2O)SC1=S | -1.2 |
| Cc1ccc(OCC(=O)N2CCC(Cc3ccccc3)CC2)c(C)c1 | 3.8 |
| CCOc1ccc(N(CC(=O)NCc2ccc(Cl)cc2)S(=O)(=O)c2ccc(Br)cc2)cc1 | -4.6 |
| COc1ccc(C(=O)NCCN2CCOCC2)cc1[N+](=O)[O-] | -9.1 |
| CCC1=NN(C(=O)c2ccc(Cl)cc2)C(O)(c2ccncc2)C1 (centres undefined) | -8.2 |
| CCCn1c2ccccc2c2nnc(SC(CC)C(=O)Nc3ccc(Cl)cn3)nc21 (centres undefined) | 18.6 |
| O=C(O)c1ccc(/C=C2\SC(=O)N(c3ccc(F)cc3)C2=O)cc1 | -9 |
| COc1cccc(C(=O)Nc2ccc(-c3nc4cc(C)c(C)cc4o3)c(O)c2)c1 | -4.4 |
| COc1ccccc1C1Nc2ccc(C(=O)c3ccccc3)cc2NC2=C1C(=O)CCC2 (centres undefined) | -7 |
| COc1ccc(CCN2C(=O)CC(N3CCN(Cc4ccc5c(c4)OCO5)CC3)C2=O)cc1OC (centres undefined) | 7.8 |
| CC(=O)c1cc(O)cc(S(=O)(=O)c2ccc(C)cc2)c1O | 4.7 |
| CCCOC(=O)c1c(-c2ccccc2Cl)csc1N | -8.2 |
| CCOc1cccc(/C=N/NC(=O)CC2C(=O)NN=C2C)c1O (centres undefined) | -20.8 |
| CCOC(=O)c1c(NC(=O)c2ccc(S(=O)(=O)N3CCCCC3)cc2)sc(C(C)=O)c1C | -10.4 |
| O=[N+]([O-])c1cccc(/C=N\N2CCN(c3ccc(Cl)cc3)CC2)c1 | -3.3 |
| CCOc1ccccc1NC(=O)c1c(NC(=O)c2cccc(F)c2)sc2c1CCC(C)C2 (centres undefined) | -6 |

| SMILES | displacement [%] |
| --- | --- |
| COC(=O)c1cc(NC(=O)COc2ccccc2)cc(C(=O)OC)c1 | 0.4 |
| O=C(O)c1ccc(/C=C2\SC(=S)N(c3cccc(C(F)(F)F)c3)C2=O)cc1 | 0.2 |
| COc1ccccc1/C=C1/SC(=S)N(CCC(=O)Nc2nnc(C)s2)C1=O | 10.4 |
| Cc1ccc(C(=O)O)cc1N1C(=O)c2ccccc2C1=O | 7 |
| COc1ccccc1OCCCN1CCCCC1 | 7.9 |
| COc1ccccc1-c1nnc(-c2ccco2)o1 | -4.7 |
| Cc1cc(C(=O)Nc2ccccc2C(=O)O)ccc1NC(=O)C(C)(C)C | 11.9 |
| O=[N+]([O-])c1cccc(-c2nnc(-c3cccc(S(=O)(=O)N4CCOCC4)c3)o2)c1 | -8.7 |
| COc1ccc(N2C(=O)C=CC2=O)cc1 | 9.8 |
| COc1ccc(C(=O)Nc2ccc(S(=O)(=O)N3CCCC3)cc2)cc1 | 29.5 |
| O=C(COc1ccc([N+](=O)[O-])cc1)Nc1ccc(O)cc1C(=O)O | 10.5 |
| Cc1cc([N+](=O)[O-])ccc1-c1ccc(C(=O)NC(C)(C)C)o1 | 11.2 |
| Cc1ccc(C2C3C(=O)N(c4cccc(C)c4)C(=O)C3N3CCCN23)cc1 (centres undefined) | 0.1 |
| CC(C)COc1ccc(/C=C2\SC(=S)NC2=O)cc1 | 1.1 |
| CCOc1ccc(S(=O)(=O)N(CC(=O)NC(C)CC)c2ccc(C)cc2)cc1 (centres undefined) | 11.7 |
| C/C(=N\Nc1nnc2c(n1)[nH]c1ccccc12)c1cccs1 | 36.7 |
| CC(=O)c1ccc(NC(=S)NC(=O)c2ccccc2)cc1 | 10.6 |
| Cc1ccc(-n2nc3cc(C)c(NC(=O)c4cccc([N+](=O)[O-])c4)cc3n2)cc1 | -8.4 |
| C=CCn1c(/N=C/c2ccc(OC)c3cccc(OC)c23)nc2ccccc21 | 6.9 |
| COc1cc(C=Nc2ccc(C)cc2C)ccc1O | 1.6 |
| CC(C)(C)c1ccc(S(=O)(=O)NNc2ccccc2)cc1 | -0.9 |
